Measured values reported in paper PMC7080775, “Filamentation of the bacterial bi-functional alcohol/aldehyde dehydrogenase AdhE is essential for substrate channeling and enzymatic regulation” (Nature Communications, 2020).

Target: the molecule itself
Test: SEC-MALS; Superdex S200 5/150 GL increase; 25 µl at 10 mg ml^-1 in 0.05 M Tris-HCl pH 7.5, 0.2 M NaCl

B1: Δ446–449 AdhE mutant (His6-AdhE with the linker shortened) (enzyme, E. coli, UniProt P0A9Q7 1-891, looked up)
chain: MAVTNVAELNALVERVKKAQREYASFTQEQVDKIFRAAALAAADARIPLAKMAVAESGMGIVEDKVIKNHFASEYIYNAYKDEKTCGVLSEDDTFGTITIAEPIGIICGIVPTTNPTSTAIFKSLISLKTRNAIIFSPHPRAKDATNKAADIVLQAAIAAGAPKDLIGWIDQPSVELSNALMHHPDINLILATGGPGMVKAAYSSGKPAIGVGAGNTPVVIDETADIKRAVASVLMSKTFDNGVICASEQSVVVVDSVYDAVRERFATHGGYLLQGKELKAVQDVILKNGALNAAIVGQPAYKIAELAGFSVPENTKILIGEVTVVDESEPFAHEKLSPTLAMYRAKDFEDAVEKAEKLVAMGGIGHTSCLYTDQDNQPARVSYFGQKMKTARILINTPASQGGIGDLYNFKLAPSLTLGCGSWGGNSISENVGPKHLINKKTVANMLWHKLPKSIYFRRGSLPIALDEVITDGHKRALIVTDRFLFNNGYADQITSVLKAAGVETEVFFEVEADPTLSIVRKGAELANSFKPDVIIALGGGSPMDAAKIMWVMYEHPETHFEELALRFMDIRKRIYKFPKMGVKAKMIAVTTTSGTGSEVTPFAVVTDDATGQKYPLADYALTPDMAIVDANLVMDMPKSLCAFGGLDAVTHAMEAYVSVLASEFSDGQALQALKLLKEYLPASYHEGSKNPVARERVHSAATIAGIAFANAFLGVCHSMAHKLGSQFHIPHGLANALLICNVIRYNANDNPTKQTAFSQYDRPQARRRYAEIADHLGLSAPGDRTAAKIEKLLAWLETLKAELGIPKSIREAGVQEADFLANVDKLSEDAFDDQCTGANPRYPLISELKQILLDTYYGRDYVEGETAAKKEAAPAKAEKKAKKSA
notes: Acetaldehyde-alcohol dehydrogenase AdhE, E. coli K12, as m1 with residues 446-449 of the linker between the AlDH and ADH domains deleted; Dimer by SEC-MALS (200 kDa); Probably expressed and purified as the wild type (surmised); also called ∆446–449 mutant AdhE; AdhE mutant protein; source: His6-AdhE-pET15 plasmid with the deletion; purified
- stoichiometry N: 2
